Source: publication PMC4575093
No constants are given. Whether binding was seen depends on the method and setting. Binding seen in cells or lysates may run through a third protein. Some results given as binding are weak or reduced against the parent protein; the word gives no strength. Where a sequence is shown, tags or fusion partners need not be part of it.

What was measured:
Assay in all cases: pull-down; purified GST fusion (10 μg GST-POR deletions; GST-H-rev107 deletion variants) as bait, partner in vitro transcribed and translated; 4°C for 2 h in 50 mM HEPES pH 7.4, 150 mM NaCl, 1 mM EDTA, 1 mM EGTA, 10% glycerol, 1% Triton X-100; western blot with anti-FLAG or anti-MYC; only the target purified
GST-POR (mouse) = molecular target: T1, GST-POR (mouse) (UniProt P37040)
T1 sequence: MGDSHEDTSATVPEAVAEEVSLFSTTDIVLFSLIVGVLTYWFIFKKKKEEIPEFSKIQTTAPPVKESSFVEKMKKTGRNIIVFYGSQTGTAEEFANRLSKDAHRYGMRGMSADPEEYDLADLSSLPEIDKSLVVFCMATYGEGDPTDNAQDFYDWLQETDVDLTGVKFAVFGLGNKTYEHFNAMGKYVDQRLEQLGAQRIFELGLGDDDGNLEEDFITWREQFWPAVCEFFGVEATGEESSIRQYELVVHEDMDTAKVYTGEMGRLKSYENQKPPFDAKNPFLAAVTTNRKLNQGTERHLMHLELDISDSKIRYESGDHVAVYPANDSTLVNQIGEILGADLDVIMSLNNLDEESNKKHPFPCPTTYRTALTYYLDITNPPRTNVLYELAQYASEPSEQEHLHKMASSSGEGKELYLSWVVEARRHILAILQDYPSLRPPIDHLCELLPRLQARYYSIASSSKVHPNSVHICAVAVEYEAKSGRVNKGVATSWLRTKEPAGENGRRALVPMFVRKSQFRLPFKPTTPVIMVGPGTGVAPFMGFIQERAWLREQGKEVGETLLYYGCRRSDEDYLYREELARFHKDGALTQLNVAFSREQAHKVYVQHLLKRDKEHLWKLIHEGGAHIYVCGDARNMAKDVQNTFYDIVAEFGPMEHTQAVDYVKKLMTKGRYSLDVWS

GST-POR_(1–430) (mouse) = molecular target: T2, GST-POR_(1–430) (mouse) (UniProt P37040)
T2 sequence: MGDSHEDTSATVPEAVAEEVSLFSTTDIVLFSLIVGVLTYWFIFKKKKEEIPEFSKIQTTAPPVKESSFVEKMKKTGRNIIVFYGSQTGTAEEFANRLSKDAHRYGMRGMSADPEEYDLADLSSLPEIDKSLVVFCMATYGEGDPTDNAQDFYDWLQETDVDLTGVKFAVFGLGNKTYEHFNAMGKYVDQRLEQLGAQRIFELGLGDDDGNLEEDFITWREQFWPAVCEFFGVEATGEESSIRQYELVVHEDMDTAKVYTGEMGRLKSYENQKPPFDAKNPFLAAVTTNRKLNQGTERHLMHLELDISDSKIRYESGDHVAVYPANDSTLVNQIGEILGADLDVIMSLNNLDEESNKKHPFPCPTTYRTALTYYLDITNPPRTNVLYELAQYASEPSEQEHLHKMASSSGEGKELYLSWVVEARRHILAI

GST-POR_(1–603) (mouse) = molecular target: T3, GST-POR_(1–603) (mouse) (UniProt P37040)
T3 sequence: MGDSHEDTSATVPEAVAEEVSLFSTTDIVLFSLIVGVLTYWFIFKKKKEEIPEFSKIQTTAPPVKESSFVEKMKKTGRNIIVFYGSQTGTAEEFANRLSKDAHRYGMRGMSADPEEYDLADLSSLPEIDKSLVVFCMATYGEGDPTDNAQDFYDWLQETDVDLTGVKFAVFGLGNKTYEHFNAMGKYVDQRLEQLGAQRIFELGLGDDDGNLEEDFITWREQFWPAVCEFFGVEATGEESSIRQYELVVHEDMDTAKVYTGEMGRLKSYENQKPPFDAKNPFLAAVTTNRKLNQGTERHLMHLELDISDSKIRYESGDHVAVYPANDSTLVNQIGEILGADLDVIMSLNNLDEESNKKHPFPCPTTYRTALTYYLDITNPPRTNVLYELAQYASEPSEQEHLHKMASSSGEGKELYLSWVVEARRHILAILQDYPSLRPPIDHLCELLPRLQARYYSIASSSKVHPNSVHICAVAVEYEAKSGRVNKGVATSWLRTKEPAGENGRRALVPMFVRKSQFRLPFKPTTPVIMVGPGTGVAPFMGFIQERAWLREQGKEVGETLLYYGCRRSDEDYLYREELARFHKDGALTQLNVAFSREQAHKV

binding (GST-POR (mouse)): binds | binding (GST-POR_(1–603) (mouse)): binds
B1: H-rev107-MYC, in vitro transcribed and translated (protein, UniProt Q8R3U1 1-162)
chain: MLAPIPEPKPGDLIEIFRPMYRHWAIYVGDGYVIHLAPPSEIAGAGAASIMSALTDKAIVKKELLCHVAGKDKYQVNNKHDEEYTPLPLSKIIQRAERLVGQEVLYRLTSENCEHFVNELRYGVPRSDQVRDAVKAVGIAGVGLAALGLVGVMLSRNKKQKQ
binding (GST-POR_(1–430) (mouse)): no binding (tested: 10 μg GST-POR deletions)
